According to the supplement of paper PMC10338343:
± gives the standard deviation. The entries are a selection whose mix differs from that of the whole data set.

What follows are sequences tested on MIWI (PIWIL1) piRISC loaded with L1MC piRNA (30 nt) (assay: pre-steady-state target cleavage rate (min^-1); MIWI and MILI are mouse PIWI proteins and EfPiwi is from a freshwater sponge; tags in brackets are library labels; higher = faster piRNA-guided slicing of the target). Settings: guide: L1MC piRNA 5'p-UAACUAAAUACUAUGCAAGCUGUAGGUCCU; auxiliary factor: none (no GTSF1).
Summary of the method: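 In HEPES–potassium acetate buffer at 33 °C, […] transcribed, DNA-blocked target RNA library was mixed with 1 nM active affinity-purified piRISC carrying one synthetic guide, with or without 500 nM GTSF1 partner protein, for 0–8 or 0–960 min. Uncleaved targets were sequenced and normalised to depth and to weakly complementary targets; three trials were pooled and k3 was capped at 0.0001 min^-1. The pre-steady-state cleavage rate followed from a burst-and-steady-state fit.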
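Also: 1 nM active piRISC with 0.1 nM target library at 33 °C single turnover.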

| Sequence | pre-steady-state target cleavage rate |
| --- | --- |
| AGGACCAACAGCUUGGAUAGUAUUUAGUUA | 0.0681 ± 0.01 |
| UCCUGGAUGUGCUUGCUUUGUAUUUAGUUA | 0.00374 ± 0.0031 |
| UCCUGGAUGUCGAACCAAAGUAUAUAGUUA | < 0.0001 |
